Assay results: ChEMBL document CHEMBL1201862, “PubChem BioAssay data set” (2004)
Counter-ions that a name gives are not always drawn.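 Method: 48-hour compound exposure of cells in 96-well plates, five concentrations, linear interpolation of endpoints. GI50: concentration for 50% inhibition of growth.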 Active and inactive are the calls of the source. Cut-off read from the data, not from the text of the source: active = GI50 up to about 1.1 µM and inactive = higher.

system: NCI-H322M; assay: growth of human tumour cells (NCI), 48 h

Question: CC[C@@H]1C(=O)OC[C@@H]1Cc1cncn1C [PILOCARPINE HYDROCHLORIDE] was tested. Which GI50 did it give?
Answer: inactive: > 100 µM

Question: With CC(CN(C)C)C(=O)/C=C/c1ccc(Cl)c(Cl)c1 (stereo not given) as the compound, how does the GI50 read?
Answer: inactive: 3.12 µM

Question: For O=C(/C=C/c1ccccc1)CCC1C(=O)c2ccccc2C1=O, which GI50 is on record?
Answer: inactive: > 100 µM

Question: Which GI50 does the source give for CC(C)c1cc(C(C)C)c(S(=O)(=O)N/N=C2\CC3CCC2(C)C3(C)C)c(C(C)C)c1 (stereo not given) here?
Answer: inactive: 32.5 µM

Question: For COc1cccc(NC(=O)CSc2nnc(-c3ccc(NC(C)=O)cc3)o2)c1, which GI50 is on record?
Answer: inactive: > 100 µM

Question: How did the GI50 turn out when O=C(Cc1ccccc1)NNc1nc(NNC(=O)c2ccncc2)nc(Nc2ccc(Cl)cc2)n1 was run?
Answer: inactive: > 10 µM

Question: Which GI50 does the source give for Cc1cccc2c(N)c3cccc(C(=O)NCC[N+](C)(C)Cc4ccc([N+](=O)[O-])n4C)c3nc12 here?
Answer: inactive: 18.5 µM

Question: O=C1C=CC(=O)c2c1ccc1c3ccccc3n(-c3cccc([N+](=O)[O-])c3)c21 was tested. Which GI50 did it give?
Answer: inactive: > 10 µM

Question: With COc1cc(/C=C2\N=C(c3ccccc3)N(c3nc4ccc(Sc5ccccc5)cc4[nH]3)C2=O)ccc1O as the compound, how does the GI50 read?
Answer: inactive: 30.1 µM

Question: How did the GI50 turn out when CC(=O)NCCC1CN(C(=O)/C=C\C#C[Si](C)(C)C)c2ccccc21 (stereo not given) was run?
Answer: inactive: 30.2 µM

Question: Which GI50 does the source give for COc1ccc(/C=N/NS(=O)(=O)c2ccc(/C=C3\NC(=O)N(C)C3=O)cc2)cc1 here?
Answer: inactive: 69.5 µM

Question: With COC(=O)CCC1=C(CC(=O)OC)C(C)(OC)N/C1=N/C(=O)OCc1ccccc1 (stereo not given) as the compound, how does the GI50 read?
Answer: inactive: > 100 µM

Question: Cc1ccc2c(O)cc(-c3cc4ccccc4s3)nc2n1 was tested. Which GI50 did it give?
Answer: inactive: 62.2 µM

Question: For C/C(Nc1ccc(F)cc1)=C1/CCOC1=O, which GI50 is on record?
Answer: inactive: > 100 µM

Question: Cn1c(=O)c2c(ncn2CN2CCN(Cn3cnc4c3c(=O)n(C)c(=O)n4C)CC2)n(C)c1=O was tested. Which GI50 did it give?
Answer: inactive: 68.5 µM

Question: Which GI50 does the source give for O=c1[nH]c2ccccc2c(=O)c2cc3ccccc3cc12 here?
Answer: inactive: 26.4 µM

Question: With C[C@]12C=CC(=O)C=C1CC[C@@H]1[C@@H]2CC[C@]2(C)OC(=O)CC[C@@H]12 [TESTOLACTONE] as the compound, how does the GI50 read?
Answer: inactive: > 422 µM

Question: For COc1ccccc1C(=O)NCC1CCCN2CCCCC12 (stereo not given), which GI50 is on record?
Answer: inactive: > 100 µM

Question: With CCOC(=O)/C=C/[C@H](O[Si](CC)(CC)CC)C(C)(C)C as the compound, how does the GI50 read?
Answer: inactive: > 100 µM

Question: Which GI50 does the source give for O=c1cccc2n1CC1CNC[C@H]2C1 [CYTISINICLINE] here?
Answer: inactive: > 100 µM

Question: With C/C(=C1/N=C(c2ccccc2)OC1=O)c1ccc(C)cc1 as the compound, how does the GI50 read?
Answer: inactive: 46.7 µM

Question: For COc1ccc(-c2c3ccccc3c(-c3ccc(OC)cc3)c3ccccc23)cc1, which GI50 is on record?
Answer: inactive: > 100 µM

Question: For [O-][N+]1=C(c2ccccc2)/C(=C2/C(c3ccccc3)=[N+]([O-])c3ccccc32)Cc2ccccc21, which GI50 is on record?
Answer: inactive: 14.5 µM

Question: With COC(=O)N[C@@H]1C[C@H]2CC[C@]1(O[Si](C(C)C)(C(C)C)C(C)C)C(=O)C2 as the compound, how does the GI50 read?
Answer: inactive: 14.8 µM

Question: O=C1[C@@H]2[C@@H](c3ccccc3)[C@]2(Cl)C(=O)[C@H]2[C@H](c3ccccc3)[C@@]12Cl was tested. Which GI50 did it give?
Answer: inactive: > 100 µM

Question: Which GI50 does the source give for CCc1cc(Cc2cc(CC)c(NC(=O)C(=O)CC(=O)c3sc(-c4cccnc4)nc3C)c(CC)c2)cc(CC)c1NC(=O)C(=O)CC(=O)c1sc(-c2cccnc2)nc1C here?
Answer: inactive: > 100 µM

Question: With Cc1c(Cl)c2ccccc2n1S(=O)(=O)c1ccccc1 as the compound, how does the GI50 read?
Answer: inactive: > 100 µM

Question: How did the GI50 turn out when Cc1cc(=O)oc2cc(OCCCOc3ccc4c(C)cc(=O)oc4c3)ccc12 was run?
Answer: inactive: > 100 µM

Question: How did the GI50 turn out when CCCCOc1c(C(=O)O)cc(Br)cc1C(=O)O was run?
Answer: inactive: > 100 µM

Question: With CC/C(=C\c1ccc(OC)cc1)c1ccc(OC)cc1 as the compound, how does the GI50 read?
Answer: inactive: > 100 µM

Question: COC(=O)/C=C\c1ccc2c(c1)CC1(C2)Cc2ccc(/C=C/C(=O)OC)cc2C1 (stereo not given) was tested. Which GI50 did it give?
Answer: inactive: > 31.6 µM

Question: With COc1cc(C(=O)N2CCc3c([nH]c4c([N+](=O)[O-])c(OC)ccc34)C2C)cc(OC)c1OC (stereo not given) as the compound, how does the GI50 read?
Answer: inactive: > 100 µM

Question: For CCOC(=O)c1nnc2c(C(=O)OCC)c3ccccc3n2c1N, which GI50 is on record?
Answer: inactive: 14.5 µM

Question: With COC(=O)c1c(O)ccc2[nH]c3c(O)c4ccccc4cc3c12 as the compound, how does the GI50 read?
Answer: inactive: 22.6 µM

Question: Which GI50 does the source give for CSC[S+]([O-])C[C@H](CO)NC(=O)/C=C/c1c(C)[nH]c(=O)[nH]c1=O (stereo not given in full) here?
Answer: active: 0.521 µM

Question: For CC(C)C[P+](c1ccccc1)(c1ccccc1)c1ccccc1, which GI50 is on record?
Answer: inactive: 16.9 µM

Question: With COc1ccc(Oc2cnn(C(Br)(Br)C(C)=O)c(=O)c2Br)cc1 as the compound, how does the GI50 read?
Answer: inactive: 40.1 µM

Question: Cn1c2c(c3c(=O)[nH]ncc31)CCc1ccccc1-2 was tested. Which GI50 did it give?
Answer: inactive: 37.9 µM

Question: Which GI50 does the source give for O=[As](O)(O)c1ccc(Cc2ccc([As](=O)(O)O)cc2)cc1 here?
Answer: inactive: 2.94 µM

Question: With CSc1ccc(-c2cc(-c3nc4ccccc4[nH]3)nc(N)c2C#N)cc1 as the compound, how does the GI50 read?
Answer: inactive: 27.2 µM

Question: Which GI50 does the source give for CSC(=S)CC(O)[C@@H]1CC2c3ccccc3C1c1ccccc12 (stereo not given in full) here?
Answer: inactive: 16.7 µM

Question: How did the GI50 turn out when O=C1C(N2CCNCC2)=C(Cl)C(=O)c2ncccc21 was run?
Answer: inactive: > 10 µM

Question: Which GI50 does the source give for CC(=O)Nc1ccc2nc(N)n[n+]([O-])c2c1 here?
Answer: inactive: > 100 µM

Question: CCOc1ccccc1NC(=O)C(=O)CC(=O)c1sc(Nc2nnc(-c3ccc(Cl)c(Cl)c3)o2)nc1C was tested. Which GI50 did it give?
Answer: inactive: > 100 µM

Question: CC(=O)O[C@H]1CC[C@@]2(C)C(=CC[C@@H]3[C@@H]2CC[C@]2(C)Nc4c(cnn4S(C)(=O)=O)C[C@@H]32)C1 was tested. Which GI50 did it give?
Answer: inactive: > 100 µM

Question: How did the GI50 turn out when COc1ccc(C(C2=C(O)CC(C)OC2=O)C2=C(O)CC(C)OC2=O)cc1 (stereo not given) was run?
Answer: inactive: > 100 µM

Question: Which GI50 does the source give for Cc1cc(N(CCOS(C)(=O)=O)CCOS(C)(=O)=O)ccc1/C=N/c1ccc(-c2csc(-c3ccc(Br)cc3)n2)cc1 here?
Answer: inactive: 7.71 µM

Question: CNC(=O)OCc1cnc([N+](=O)[O-])n1C was tested. Which GI50 did it give?
Answer: inactive: > 100 µM

Question: For Cc1ccc2c(c1)CC1(Cc3c(C)cccc3C1=O)C2=O (stereo not given), which GI50 is on record?
Answer: inactive: > 100 µM

Question: Which GI50 does the source give for COc1cc(CCc2cccnc2)cc(OC)c1OC here?
Answer: inactive: > 100 µM

Question: Which GI50 does the source give for CC(C)[Si]1(C(C)C)OCC2OC(n3ccc(=O)[nH]c3=O)C([Se]c3ccccc3)C2O[Si](C(C)C)(C(C)C)O1 (stereo not given) here?
Answer: inactive: 13.6 µM

Question: Which GI50 does the source give for COc1ccc(/C=C/c2cc(O)cc(OC)c2)cc1 here?
Answer: inactive: 99.5 µM

Question: With C[N+](C)(C)c1nc(N)nc2c1ncn2C1OC(CO)C(O)C1O (stereo not given) as the compound, how does the GI50 read?
Answer: inactive: > 100 µM

Question: With N#CC1CC2(C(=O)C1=O)c1ccccc1-c1ccccc12 (stereo not given) as the compound, how does the GI50 read?
Answer: inactive: > 100 µM

Question: Which GI50 does the source give for Cn1c(=O)sc2cc(C(=S)N3CCOCC3)ccc21 here?
Answer: inactive: > 100 µM

Question: For CCOC(=O)c1c(-c2ccc(O)c(OC)c2)c(C#N)c(=S)n(C2OC(COC(C)=O)C(OC(C)=O)C(OC(C)=O)C2OC(C)=O)c1-c1ccccc1 (stereo not given), which GI50 is on record?
Answer: inactive: > 100 µM

Question: For O=C(O)c1ccccc1NC(=O)C1CCCCC1, which GI50 is on record?
Answer: inactive: > 100 µM

Question: How did the GI50 turn out when COc1cc(C2c3cc4c(cc3[C@@H](OCCN(C)C)C3COC(=O)[C@H]23)OCO4)cc(OC)c1O (stereo not given in full) was run?
Answer: inactive: 1.89 µM

Question: With Cc1c(-c2cnccn2)ssc1=S [OLTIPRAZ] as the compound, how does the GI50 read?
Answer: inactive: > 71.9 µM

Question: With NNC(=O)/C(=C/c1ccc(Cl)cc1Cl)NC(=O)c1ccccc1 as the compound, how does the GI50 read?
Answer: inactive: > 100 µM

Question: Which GI50 does the source give for COc1cccc2nc3c(C(=O)NCCN(C)C)cccc3nc12 here?
Answer: inactive: 6.79 µM

Question: How did the GI50 turn out when Cc1cccc2nc(-c3ccccc3)cc(=O)n12 was run?
Answer: inactive: > 100 µM

Question: With CC(=O)OC1C2CCC3CC2C2(SCCS2)C31 (stereo not given) as the compound, how does the GI50 read?
Answer: inactive: 45.9 µM

Question: For O=C(Cn1c2ccc(Br)cc2c2nc3ccccc3nc21)N1CCOCC1, which GI50 is on record?
Answer: inactive: > 100 µM

Question: For COC1CCC(OS(C)(=O)=O)CO1 (stereo not given), which GI50 is on record?
Answer: inactive: > 100 µM
